# According to the RNAGym collection of RNA variant scans (doi:10.7554/elife.90254):
# The source gives no read counts; variants with many changes may rest on few reads.
# B1: LINE1-mini (parent)
# chain: GGCAGAGCUCAACACAGCGUGGCAAAGUGGCUGUGGCUAGACUGCC
# Variants of: B1
# Experiment: self-cleavage, relative activity (ratio to wild type); higher = more cleavage; in vitro, sequencing; the parent is a self-cleaving ribozyme
row,Variant,self-cleavage
1,A4G G7U A12C C37U,0.04
2,A4U C18A A25U A26U,0.09
3,A4U C8A U9G A11U G17A G27C C37A,0.01
4,A4G G7C A11G G19C G21U C46A,0.01
5,A4U G19A A25C G30U,0.1
6,A4G G27A U34G C37G,0.06
7,A4U G17C U38G C45A,0.01
8,A4U A14C U20A U38A A41U C42G C46A,0.01
9,A4U G5C A14U G19A A25U,0.07
10,A4G G17U A39G,0.12
11,A4G U9A C46A,0.27
12,A4G G22U C23U C31A A39G G40U,0.22
13,A4G C10U C23G A24G G40A,0.05
14,A4U C8U C10G C23A A24U A39G,0.02
15,A4G A12U C23U,0.05
16,A4U C18G G30U,0.01
17,A4G A16G G33A C42U,0.01
18,A4U C10A G19U G21A G36U,0.02
19,A4G U20A G27U,0.57
20,A4U C13G A26G C31G C45A,0.02
21,A4G U9A A14C A25C G36C,0.05

row,Variant,self-cleavage
1,A4U C15G U34C G40C,0.03
2,A4U A6C G30U G40U U43A,0.01
3,A4U G5A A41C U43A,0.4
4,A4G C8U G33U C42U,0.05
5,A4G G19A G33A G35A G44U,0.02
6,A4U A16G G19U U20C U43G,0
7,A4G C8A G33U,0.17
8,A4G G30U C42G,0.36
9,A4U G7U C42G,0.03
10,A4U A24C U28C C37U,0.1
11,A4G C8U G19U G40A,0.29
12,A4U C13A G40U,0.02
13,A4U G22U G33A U43C,0.2
14,A4U G5C G7C A24G,0.4
15,A4U G19U G27U U34C A41U,0.07
16,A4U C18U A26G U28C G35U G40U,0.08
17,A4G G17A A24C,0.06
18,A4U C13A U20C A26U C37G,0.02
19,A4U C15A G22A U32A,0.03
20,A4G G7U C13U,0.04
21,A4G A26U C45U,2.06

row,Variant,self-cleavage
1,A4U C18U G22C,0.04
2,A4G A25U U34G,0.05
3,A4G U32A A39U,0.56
4,A4U C13A A41U,0.07
5,A4U C15U G22U G35U,0.13
6,A4G A14U G21U G35U,0.09
7,A4G G17U C46G,0.04
8,A4G G17C G22A A24C,0.1
9,A4G G5C G19C A41C,0.2
10,A4U C8A U28A,0.33
11,A4G G35A C46U,0.15
12,A4U C18G A26C U32A,0.17
13,A4U C15A G22A A26G,0.03
14,A4U G21U G29U G44U,0.22
15,A4G G17C U32G G33U C37G G44U,0
16,A4U C18A U20C G30U C45U,0.12
17,A4U C18G U28C,0.05
18,A4G G17A U43G C45A,0.03
19,A4G G5A U9C C18U,0.02
20,A4G A14G U28G A39G,0.03
21,A4G A24G G33C,0

row,Variant,self-cleavage
1,A4G U9C A24C A26C G35C C37U,0
2,A4U A16G A24G C37U,0.05
3,A4U G5A A6G A24C,0.04
4,A4G G5C C10A C13U G22U G40C,0.03
5,A4G G5U U34A,0.01
6,A4G G5U U34C,0.04
7,A4U C18U G19C G22C U28A C42A,0.02
8,A4U G5A A6U U43A G44C,0.06
9,A4G G7C A12C G33A G44C,0.02
10,A4U G7U C13U G29A C45G,0.52
11,A4G U32A G33U,0.18
12,A4U G5U C8U U20C,0.07
13,A4G C23U G36A G40U,0.8
14,A4G U9A C13A A14U,0.37
15,A4U G22A U34C,0.1
16,A4U C8U G19A G30A,0.14
17,A4G U28G G44U,0.03
18,A4U A25G A26C,0.07
19,A4G C31A G44A C46U,0.01
20,A4U G5C A11C,0.07
